Laboratory results reported in the supplement of paper PMC3334620.
Whole data set: some 33,000 sequences, median “E-score (-0.5 to 0.5)” near -0.012, cut for the highest 2% near 0.27. This is one part of the list.

target: T1, Vhr1 (UniProt P40522); experiment: PBM E-score (8-mer binding enrichment) (E-score (-0.5 to 0.5)); higher = stronger / more preferred TF binding; most listed sequences are background and not binding sites; conditions: protein concentration: 200 nM; construct: GST-full length
T1 sequence: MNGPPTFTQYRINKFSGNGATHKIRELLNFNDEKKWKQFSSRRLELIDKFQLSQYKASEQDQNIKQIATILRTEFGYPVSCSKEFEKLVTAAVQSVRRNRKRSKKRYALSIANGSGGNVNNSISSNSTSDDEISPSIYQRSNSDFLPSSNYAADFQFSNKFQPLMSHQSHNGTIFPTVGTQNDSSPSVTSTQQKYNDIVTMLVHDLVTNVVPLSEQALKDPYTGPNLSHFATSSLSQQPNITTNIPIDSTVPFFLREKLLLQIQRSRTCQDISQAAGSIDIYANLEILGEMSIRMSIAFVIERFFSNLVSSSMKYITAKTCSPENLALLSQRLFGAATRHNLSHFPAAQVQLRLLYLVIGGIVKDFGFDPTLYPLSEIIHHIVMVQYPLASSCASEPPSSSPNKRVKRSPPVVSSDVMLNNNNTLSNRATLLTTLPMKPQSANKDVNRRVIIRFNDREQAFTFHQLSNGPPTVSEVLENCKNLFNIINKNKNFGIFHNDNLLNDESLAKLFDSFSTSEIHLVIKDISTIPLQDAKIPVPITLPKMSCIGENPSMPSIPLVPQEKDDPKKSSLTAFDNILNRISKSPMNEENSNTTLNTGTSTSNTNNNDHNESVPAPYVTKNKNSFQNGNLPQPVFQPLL
Outline: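 Detection of bound protein used fluorescent anti-GST, with scans normalised by masliner. The proteins were GST-tagged yeast transcription factors applied at about 100-200 nM to universal all-10-mer Agilent arrays made double-stranded by primer extension. Each ungapped eight-base word, pooled with its reverse complement, was scored with an E-score from the Universal PBM Analysis Suite.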

Sequence | PBM E-score
CGGCAGGA | -0.297
GAGGCTAA | -0.136
CAACCTCA | -0.126
CGGAAGAA | -0.183
CTACTGCC | -0.196
GCCCTTGA | -0.129
CCTTGTGA | 0.0709
CGCTGCCC | -0.106
CGGTTTCA | -0.0806
CAAGGTGG | -0.00342
CACAACGA | 0.152
CAGTGCCG | 0.00143
GCAGATTA | 0.0608
AATTATTC | -0.0201
CGGGGTAG | 0.0237
AGCTAAGG | -0.398
ACCACCAC | 0.11
AGAAATTC | -0.218
AAATCGCA | 0.0184
GGAGAACA | -0.207
CAAACCTG | 0.0222
CTAGCAAG | -0.00438
CAGAGAGA | -0.0432
ATAACTGG | 0.0653
GAAGGAGA | -0.121

Sequence | PBM E-score
AAATCCAA | -0.187
ATGGAGGA | -0.178
AGGGCGCA | -0.15
CTGAGCGA | 0.00953
GAGGCCTA | -0.192
CACGTATC | 0.0903
CAGGGTCA | 0.00801
ACAATCCG | -0.0094
GGTAAAAC | -0.133
GAGTCAGA | 0.447
AACTCCGA | 0.115
ACTAACAG | 0.215
CCAATTAA | 0.0339
AAAAACGG | -0.0925
AGTGTTAA | 0.0169
AGAGGAAA | -0.174
CTGTAGAA | -0.0903
AGGACAAT | -0.13
ATGCATTA | 0.116
GATAGCAA | 0.232
ACTGAGCC | 0.219
CCGTTATA | -0.106
ACACAGAG | 0.074
AGTCTGAA | -0.0023
ACGCCTTG | -0.0936

Sequence | PBM E-score
AAAGCTTT | -0.268
AAAACAGT | 0.129
ACAGCCCG | -0.0318
ATAGTCTC | 0.228
ACTCAGAC | 0.194
AGTACGGA | 0.173
CAATAAAA | -0.0423
CCGGCTGC | 0.194
AATCTCTG | -0.00409
AGAGAGAA | -0.153
AAAAGGCC | -0.133
CTGATGGA | 0.0738
GGACAAAC | -0.062
ATCAATGC | 0.0623
AACATCCA | 0.1
ATAGCCAG | -0.163
GAAAAGGA | -0.152
AATAACAC | 0.256
GACCAAGC | -0.053
AAACCCAG | 0.00438
ACATCAAC | 0.136
CCACCAAG | -0.0323
ATGGAAAA | -0.152
ACCTCCAA | -0.0631
ACGGGTCA | -0.077

Sequence | PBM E-score
CCTGATCG | 0.0235
TCCTGCCA | -0.156
GAGCTAAA | -0.197
AAATTGAT | -0.0358
ATTTGTGA | 0.0868
AGGGACCT | -0.161
ATGATCTG | 0.0935
AAATACAT | -0.011
ACAACTGC | -0.0534
CCAAAGTA | 0.0574
AGGCTGAG | -0.0574
CAAACCAC | 0.0402
ACATCAAT | 0.149
GAAGTTAA | -0.253
CAACATCC | 0.044
CGACAAGC | 0.0866
CGCTGTGC | 0.0456
CCGGGAGC | -0.0514
GGATAACA | -0.101
ACGTTCAA | -0.263
AGCATGTC | 0.133
ATATTAGG | 0.0838
AGGATGGA | -0.0494
AGTACCCC | 0.0588
ATTGCAAT | -0.0197

Sequence | PBM E-score
ATCGACAA | -0.0534
TAACGACA | -0.0196
GTAGCTCA | 0.0143
ATCAAAGA | -0.186
GATTCGGC | 0.168
CCCTAGAG | -0.0545
GCCTATCC | -0.116
ATTTGGGA | -0.105
ACGTGCCT | 0.0454
GTTACAAC | 0.101
ATCTTCGG | -0.144
AAACTAAT | 0.177
ATCCCATC | -0.103
AGCCTGCG | -0.0373
GTCCCCAC | -0.0828
GAGTGGTA | 0.101
ATGTCAAT | -0.0117
AATCGAAC | 0.021
TATAGGAA | 0.0238
GACTCACC | 0.469
GCCACTCA | 0.12
CTTCGAAC | -0.073
GTATCAGA | -0.00014
GGACTGCA | 0.0284
CAGTTGTC | 0.0804

Sequence | PBM E-score
GACTAGAA | 0.0461
ATCGGCGG | 0.175
CTTGGGTA | 0.157
CGGACCCC | -0.158
ACATCAGC | 0.0376
CAGCGCCC | -0.0867
CTAATTGC | 0.127
GTCGGCAA | -0.0184
CCTGTTGC | 0.0181
GGGTCTCA | 0.00842
GGGATAAC | -0.0823
AATAGGCT | -0.053
AAGACCCG | -0.00758
CAAATGCC | -0.267
CCGAGCGA | 0.129
GAACTCCC | 0.102
GGGCCTCA | -0.276
GGAGCTTA | -0.116
ACTTTATC | -0.0107
AGCTGCAA | -0.235
ACCGACTA | -0.0288
CGATTTGA | -0.0158
GACCCCGA | 0.0335
GGGTGGAC | 0.0477
ACTCCTCC | 0.16

Sequence | PBM E-score
TCGAAAAA | -0.0657
AGGCATGA | -0.0052
AAACCGTC | -0.145
TACTTCGA | -0.0214
ACGTAAAC | -0.331
AATGCTAT | -0.0368
GGGCTAGA | -0.0758
GGTTCCAA | 0.118
ACAACTAG | -0.0674
AACAGCGC | 0.0307
AAGCCTCA | -0.178
TCTCCTAA | -0.12
GATACGAC | 0.135
GGCTTCCC | -0.0269
AGGTCGAT | 0.0258
ACGTTCAT | -0.194
AAGAATCT | -0.21
GACACCCA | 0.117
GGGCCAGA | -0.159
ACTCTTAG | -0.081
GATCTCCA | -0.136
ATCCGCCA | 0.0315
